Assay results from the supplement of paper PMC10037445.
Whole data set: some 2,900 compounds, median “NF-kB SEAP reporter activity, fold change vs agonist alone” near 0.99, cut for the highest 2% near 2.6. Some of the results follow.

Tests used:
RAW-Dual [1] = experiment: NF-kB SEAP reporter activity, fold change vs agonist alone; higher = enhanced NF-kB activity; conditions: library stock concentration (final ~1000-fold dilution): 10 mM
Procedure, shortened: (§1)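 Library stock was pin-tooled at 50 nL into 384-well plates of RAW-Dual macrophages (50,000 cells/well, DMEM), followed 1 h later by a PRR agonist, and the cells were kept at 37 °C, 5% CO2. Supernatant collected after 20 hours was read for IRF by QuantiLuc luminescence and for NF-κB by QuantiBlue absorbance at 620 nm. Reporter activity is fold change over agonist-alone wells, and a well counted as cytotoxic when its IncuCyte confluency was below 70% of agonist controls in both mask sets.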

RAW-Dual [2] = experiment: NF-kB SEAP reporter activity, fold change vs agonist alone; cytotoxicity flag (confluency mask): not cytotoxic; higher = enhanced NF-kB activity
Procedure, shortened: as §1

RAW-Dual [3] = experiment: NF-kB SEAP reporter activity, fold change vs agonist alone; cytotoxicity flag (confluency mask): cytotoxic (confluency <70% of control); higher = enhanced NF-kB activity
Procedure, shortened: as §1

[4] = cytotoxicity flag (confluency mask): not cytotoxic, agonist: Imiquimod (TLR7) […]
[5] = cytotoxicity flag (confluency mask): not cytotoxic, agonist: MPLA (TLR4) […]
[6] = agonist: ODN 1826 (TLR9) 0.5 ug/mL
[7] = agonist: Pam2CSK4 (TLR2/6) 0.1 ug/mL
[8] = agonist: Pam3CSK4 (TLR2/1) 0.1 ug/mL
[9] = cytotoxicity flag (confluency mask): cytotoxic (confluency <70% of control), agonist: Imiquimod (TLR7) […]
[10] = cytotoxicity flag (confluency mask): cytotoxic (confluency <70% of control), agonist: MPLA (TLR4) […]

CC1(C)OC2CC(=O)OCC23C1CC(=O)C1(C)C3CCC2(C)C(c3ccoc3)OC(=O)C3OC321 (stereo not drawn)
NF-kB SEAP reporter activity (RAW-Dual [1]; [4]): 0.952 | NF-kB SEAP reporter activity (RAW-Dual [1]; [5]): 1.02

CC1(C)OC2CC(=O)OCC23C1CC(=O)C1(C)C3CCC2(C)C(c3ccoc3)OC(=O)C3OC321 (stereo not drawn) (library stock concentration (final ~1000-fold dilution): 10 mM)
NF-kB SEAP reporter activity (RAW-Dual [2]; agonist: LPS (TLR4) 0.1 ug/mL): 0.941 | NF-kB SEAP reporter activity (RAW-Dual [2]; [6]): 0.968 | NF-kB SEAP reporter activity (RAW-Dual [2]; [7]): 1.1 | NF-kB SEAP reporter activity (RAW-Dual [2]; [8]): 1.12

CC(NCc1ccc(OCc2cccc(F)c2)cc1)C(N)=O.CS(=O)(=O)O (stereo not drawn)
NF-kB SEAP reporter activity (RAW-Dual [1]; [4]): 1.73 | NF-kB SEAP reporter activity (RAW-Dual [1]; [5]): 1.07

CC(NCc1ccc(OCc2cccc(F)c2)cc1)C(N)=O.CS(=O)(=O)O (stereo not drawn) (library stock concentration (final ~1000-fold dilution): 10 mM)
NF-kB SEAP reporter activity (RAW-Dual [2]; agonist: LPS (TLR4) 0.1 ug/mL): 1.08 | NF-kB SEAP reporter activity (RAW-Dual [2]; [6]): 1.17 | NF-kB SEAP reporter activity (RAW-Dual [2]; [7]): 0.813 | NF-kB SEAP reporter activity (RAW-Dual [2]; [8]): 1.1

C[N+]1(C)C2CC(OC(=O)C(O)(c3cccs3)c3cccs3)CC1C1OC12 (stereo not drawn) (library stock concentration (final ~1000-fold dilution): 10 mM)
NF-kB SEAP reporter activity (RAW-Dual [2]; agonist: LPS (TLR4) 0.1 ug/mL): 0.892 | NF-kB SEAP reporter activity (RAW-Dual [2]; [6]): 1.02 | NF-kB SEAP reporter activity (RAW-Dual [2]; [7]): 1.01 | NF-kB SEAP reporter activity (RAW-Dual [2]; [8]): 1.12

C[N+]1(C)C2CC(OC(=O)C(O)(c3cccs3)c3cccs3)CC1C1OC12 (stereo not drawn)
NF-kB SEAP reporter activity (RAW-Dual [1]; [4]): 1.28 | NF-kB SEAP reporter activity (RAW-Dual [1]; [5]): 1.02

O=C(O)CCNc1cc(N2CCc3ccccc3CC2)nc(-c2ccccn2)n1 (library stock concentration (final ~1000-fold dilution): 10 mM)
NF-kB SEAP reporter activity (RAW-Dual [2]; agonist: LPS (TLR4) 0.1 ug/mL): 0.801 | NF-kB SEAP reporter activity (RAW-Dual [2]; [6]): 0.993 | NF-kB SEAP reporter activity (RAW-Dual [2]; [7]): 0.889 | NF-kB SEAP reporter activity (RAW-Dual [2]; [8]): 0.929

O=C(O)CCNc1cc(N2CCc3ccccc3CC2)nc(-c2ccccn2)n1
NF-kB SEAP reporter activity (RAW-Dual [1]; [4]): 0.904 | NF-kB SEAP reporter activity (RAW-Dual [1]; [5]): 0.904

Cl.Cl.Fc1ccc(C(c2ccc(F)cc2)N2CCN(C/C=C/c3ccccc3)CC2)cc1 (library stock concentration (final ~1000-fold dilution): 10 mM)
NF-kB SEAP reporter activity (RAW-Dual [2]; agonist: LPS (TLR4) 0.1 ug/mL): 2.45 | NF-kB SEAP reporter activity (RAW-Dual [2]; [6]): 1.44 | NF-kB SEAP reporter activity (RAW-Dual [2]; [7]): 0.829 | NF-kB SEAP reporter activity (RAW-Dual [2]; [8]): 1.09

Cl.Cl.Fc1ccc(C(c2ccc(F)cc2)N2CCN(C/C=C/c3ccccc3)CC2)cc1
NF-kB SEAP reporter activity (RAW-Dual [1]; [4]): 1.99 | NF-kB SEAP reporter activity (RAW-Dual [1]; [5]): 1.65

CC(C)c1cnn2c(NCc3ccccc3)cc(NCCCCCCN)nc12.Cl
NF-kB SEAP reporter activity (RAW-Dual [1]; [9]): 2.18 | NF-kB SEAP reporter activity (RAW-Dual [1]; [10]): 0.882

CC(C)c1cnn2c(NCc3ccccc3)cc(NCCCCCCN)nc12.Cl (library stock concentration (final ~1000-fold dilution): 10 mM)
NF-kB SEAP reporter activity (RAW-Dual [3]; agonist: LPS (TLR4) 0.1 ug/mL): 0.271 | NF-kB SEAP reporter activity (RAW-Dual [3]; [6]): 0.234 | NF-kB SEAP reporter activity (RAW-Dual [3]; [7]): 1.08 | NF-kB SEAP reporter activity (RAW-Dual [3]; [8]): 1.5

CCNC(=O)c1cc2c(-c3cc(C(C)(C)O)ccc3Oc3c(C)cc(F)cc3C)cn(C)c(=O)c2[nH]1 (library stock concentration (final ~1000-fold dilution): 10 mM)
NF-kB SEAP reporter activity (RAW-Dual [3]; agonist: LPS (TLR4) 0.1 ug/mL): 0.903 | NF-kB SEAP reporter activity (RAW-Dual [3]; [6]): 1.34 | NF-kB SEAP reporter activity (RAW-Dual [3]; [7]): 0.318 | NF-kB SEAP reporter activity (RAW-Dual [3]; [8]): 0.842

CCNC(=O)c1cc2c(-c3cc(C(C)(C)O)ccc3Oc3c(C)cc(F)cc3C)cn(C)c(=O)c2[nH]1
NF-kB SEAP reporter activity (RAW-Dual [1]; [9]): 1.4 | NF-kB SEAP reporter activity (RAW-Dual [1]; [10]): 1.84

Cc1cc([N+](=O)[O-])ccc1NS(=O)(=O)c1cc(Cl)ccc1Cl
NF-kB SEAP reporter activity (RAW-Dual [1]; [4]): 1.01 | NF-kB SEAP reporter activity (RAW-Dual [1]; [5]): 1.41

Cc1cc([N+](=O)[O-])ccc1NS(=O)(=O)c1cc(Cl)ccc1Cl (library stock concentration (final ~1000-fold dilution): 10 mM)
NF-kB SEAP reporter activity (RAW-Dual [2]; agonist: LPS (TLR4) 0.1 ug/mL): 3.09 | NF-kB SEAP reporter activity (RAW-Dual [2]; [6]): 0.67 | NF-kB SEAP reporter activity (RAW-Dual [2]; [7]): 0.323 | NF-kB SEAP reporter activity (RAW-Dual [2]; [8]): 0.349

C=CC(=O)N1CCCC(n2nc(-c3ccc(Oc4ccccc4)cc3)c3c(N)ncnc32)C1 (stereo not drawn)
NF-kB SEAP reporter activity (RAW-Dual [1]; [4]): 1.27 | NF-kB SEAP reporter activity (RAW-Dual [1]; [5]): 0.621

C=CC(=O)N1CCCC(n2nc(-c3ccc(Oc4ccccc4)cc3)c3c(N)ncnc32)C1 (stereo not drawn) (library stock concentration (final ~1000-fold dilution): 10 mM)
NF-kB SEAP reporter activity (RAW-Dual [2]; agonist: LPS (TLR4) 0.1 ug/mL): 0.397 | NF-kB SEAP reporter activity (RAW-Dual [2]; [6]): 0.575 | NF-kB SEAP reporter activity (RAW-Dual [2]; [7]): 0.352 | NF-kB SEAP reporter activity (RAW-Dual [2]; [8]): 0.557

COc1ccc(COc2ccc(Cc3cnc(N)nc3N)cc2OC)cc1
NF-kB SEAP reporter activity (RAW-Dual [1]; [4]): 0.936 | NF-kB SEAP reporter activity (RAW-Dual [1]; [5]): 1.07

COc1ccc(COc2ccc(Cc3cnc(N)nc3N)cc2OC)cc1 (library stock concentration (final ~1000-fold dilution): 10 mM)
NF-kB SEAP reporter activity (RAW-Dual [2]; agonist: LPS (TLR4) 0.1 ug/mL): 0.815 | NF-kB SEAP reporter activity (RAW-Dual [2]; [6]): 0.76 | NF-kB SEAP reporter activity (RAW-Dual [2]; [7]): 0.875 | NF-kB SEAP reporter activity (RAW-Dual [2]; [8]): 0.899

CN(C)CCSSCCNC(=O)C1CCN(C(=O)CSc2ccc(Cl)cc2)CC1.O=C(O)C(F)(F)F
NF-kB SEAP reporter activity (RAW-Dual [1]; [4]): 1.07 | NF-kB SEAP reporter activity (RAW-Dual [1]; [5]): 1.24

CN(C)CCSSCCNC(=O)C1CCN(C(=O)CSc2ccc(Cl)cc2)CC1.O=C(O)C(F)(F)F (library stock concentration (final ~1000-fold dilution): 10 mM)
NF-kB SEAP reporter activity (RAW-Dual [2]; agonist: LPS (TLR4) 0.1 ug/mL): 1.41 | NF-kB SEAP reporter activity (RAW-Dual [2]; [6]): 1.38 | NF-kB SEAP reporter activity (RAW-Dual [2]; [7]): 1.09 | NF-kB SEAP reporter activity (RAW-Dual [2]; [8]): 1.68

O=C(O)c1cc2ccccc2[nH]1
NF-kB SEAP reporter activity (RAW-Dual [1]; [4]): 0.909 | NF-kB SEAP reporter activity (RAW-Dual [1]; [5]): 1.08

O=C(O)c1cc2ccccc2[nH]1 (library stock concentration (final ~1000-fold dilution): 10 mM)
NF-kB SEAP reporter activity (RAW-Dual [2]; agonist: LPS (TLR4) 0.1 ug/mL): 0.919 | NF-kB SEAP reporter activity (RAW-Dual [2]; [6]): 0.947 | NF-kB SEAP reporter activity (RAW-Dual [2]; [7]): 1.07 | NF-kB SEAP reporter activity (RAW-Dual [2]; [8]): 0.965

Cc1cc(Cn2cnc3c2CC(C(=O)O)N(C(=O)C(c2ccccc2)c2ccccc2)C3)ccc1N(C)C (stereo not drawn)
NF-kB SEAP reporter activity (RAW-Dual [1]; [4]): 0.927 | NF-kB SEAP reporter activity (RAW-Dual [1]; [5]): 1.02

Cc1cc(Cn2cnc3c2CC(C(=O)O)N(C(=O)C(c2ccccc2)c2ccccc2)C3)ccc1N(C)C (stereo not drawn) (library stock concentration (final ~1000-fold dilution): 10 mM)
NF-kB SEAP reporter activity (RAW-Dual [2]; agonist: LPS (TLR4) 0.1 ug/mL): 0.968 | NF-kB SEAP reporter activity (RAW-Dual [2]; [6]): 1 | NF-kB SEAP reporter activity (RAW-Dual [2]; [7]): 1.01 | NF-kB SEAP reporter activity (RAW-Dual [2]; [8]): 0.945
